Data: PubChem BioAssay AID760 (NMMLSC, 2007)
The whole screen tested about 190,000 compounds, of which about 360 (0.19%) were called active. Inconclusive results, whose numbers are uncertain, are shown with a selection of clear calls.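 Rule for the calls: active = GTP binding activity at least 20 points away from 100%, either lowered or raised; inconclusive = signal likely due to the compound's own green fluorescence; inactive = the rest.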

target: Ras-related protein Rab-2A (Canis lupus familiaris) (UniProt P61105); test: Rab2 wt fluorescent GTP binding changes, either direction – biochemical, dog, bead-based flow cytometry, multiplex, primary screen (AID 760); settings: GST-Rab2 wt beads, Bodipy-GTP binding, at 10 µM;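 note: 0% = beads with excess unlabeled GTP and 100% = no-compound control corrected for plate trend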

| SMILES | GTP binding activity |
| --- | --- |
| COCc1nc2ccccc2n1Cc1cccc(C)c1 | inconclusive: 90% |
| CCN(CCCNC(=O)CCn1c(=O)[nH]c2ccccc2c1=O)c1cccc(C)c1 | inconclusive: 108% |
| NC(=O)/C(=N\O)c1ccccc1 | inconclusive: 101% |
| COc1ccccc1C1C(C(N)=O)=C(C)Nc2nc(-c3ccccc3Cl)nn21 (stereo not given) | inconclusive: 102% |
| Cn1cnc([N+](=O)[O-])c1Oc1ccc2ccccc2c1 | inactive: 96% |
| O=C(c1cc2sccc2n1Cc1ccccc1)N1CCc2ccccc21 | inconclusive: 104% |
| CC(=O)N1CCc2cc(Br)cc(S(=O)(=O)NCCCN3CCCC(C)C3)c21 (stereo not given) | inconclusive: 89% |
| CCc1ccc(Cc2cnc(NC(=O)C3=NCCN3)s2)cc1 | inactive: 98% |
| CC(C)CC1CCCCC1OC(=O)C[N+]1(C)CCCCC1 (stereo not given) | inconclusive: 98% |
| COc1cc(/C=N/NC(=O)c2cnn3c(C)cc(-c4ccccc4)nc23)ccc1O | inactive: 89% |
| CNS(=O)(=O)c1cccc2cccnc12 | inconclusive: 103% |
| CCOc1ccccc1-n1c(C)nc2cc(C(=O)O)ccc21 | inconclusive: 96% |
| Cc1nnc(SCc2cccc(Cl)c2)n(N)c1=O | inconclusive: 94% |
| Cc1sc2nc(SCC(=O)NCc3ccco3)n(CCc3ccccc3)c(=O)c2c1C | inconclusive: 103% |
| COc1cccc(-c2nn3c(-c4ccccn4)nnc3s2)c1 | inconclusive: 91% |
| CC(C)C(=O)Nc1ccc(C(=O)N/N=C/C2CC3C=CC2C3)cc1 (stereo not given) | inconclusive: 103% |
| CCN(CC)S(=O)(=O)c1cccc(C(=O)N/N=C(\C)c2ccc(O)cc2O)c1 | inconclusive: 92% |
| CC(C)Cn1c(N)c(C(=O)CSc2nc3ccccc3c(=O)n2CCCN2CCOCC2)c(=O)n(C)c1=O | inactive: 96% |
| Cc1cccc(NC(=O)Nc2ccc(Oc3c(F)c(F)c(F)c(F)c3F)cc2)c1 | inconclusive: 102% |
| O=C(COC(=O)c1cc2ccccc2o1)c1ccccc1 | inactive: 98% |

| SMILES | GTP binding activity |
| --- | --- |
| CCOC(=O)N1CCN(C(=O)CCc2ccc(S(=O)(=O)NCCc3ccccc3)cc2)CC1 | active: 32% |
| CCn1c(SCc2ccc(C#N)cc2)nnc1-c1cccc(Cl)c1 | inconclusive: 90% |
| Cn1[nH]c(C(F)(F)F)c(C=Nc2ccc(Cl)cc2)c1=O | inactive: 102% |
| CCC(C)N1C(=O)S/C(=C/c2ccc(N3CCOCC3)cc2C)C1=O (stereo not given) | inconclusive: 102% |
| Cc1ccnc(NC(c2ccccc2O)c2oc(CO)cc(=O)c2O)c1 (stereo not given) | inactive: 96% |
| CC(C)OC(=O)CC1C(=O)NCCN1C(=S)NC(=O)c1ccc(F)cc1 (stereo not given) | inactive: 96% |
| COc1ccc(NS(=O)(=O)c2csc(C(=O)Nc3ccccc3)c2)cc1 | inconclusive: 95% |
| NC(=O)N1CCN(C(=O)c2ccco2)CC1 | inconclusive: 103% |
| CC(=O)CSc1ncnc2c1cnn2-c1ccccc1 | inactive: 100% |
| CC(C)c1ccccc1NC(=O)COC(=O)c1ccc(Cl)c(S(=O)(=O)N2CCCCCC2)c1 | inactive: 100% |
| CCC(C)(C)NC(=O)C1CCN(S(=O)(=O)c2cccs2)CC1 | inconclusive: 204% |
| CNC(=S)Nc1cc(C)ccc1OC(F)F | inconclusive: 99% |
| Cc1c(F)cccc1NS(=O)(=O)c1ccc2c(c1)c(=O)n(C)c(=O)n2C | inactive: 100% |
| N#Cc1cc2c(nc1SCc1nc3ccccc3[nH]1)CCC2 | inconclusive: 91% |
| COc1ccc(CNC(=O)c2c(O)c3ccccc3n(C)c2=O)cc1OC | inconclusive: 92% |
| Cc1cc(NC(=O)CSCC(=O)N(c2cccc(Cl)c2)C(C(=O)NC2CCCCC2)c2ccc(O)c(O)c2)no1 (stereo not given) | inactive: 98% |
| COc1c(C)cccc1C(=O)NC(=S)Nc1ccc2c(c1)Cc1ccccc1-2 | active: 75% |
| O=C(NCC1CCCO1)c1cccc(S(=O)(=O)NCc2ccccc2)c1 (stereo not given) | inactive: 100% |
| Cc1cc(Br)ccc1NC(=O)CN1C(=S)NC(C)(C)CC1C (stereo not given) | inconclusive: 91% |
| COc1cc2[nH]c(=S)nc(NCCc3ccc(C)cc3)c2cc1OC | active: 49% |

| SMILES | GTP binding activity |
| --- | --- |
| O=c1oc2c(O)c(O)cc3c(=O)oc4c(O)c(O)cc1c4c23 | inconclusive: 82% |
| O=c1c2c(nc3c(-c4ccc(Cl)cc4)c[nH]n13)CCC2 | inconclusive: 82% |
| COc1ccc(S(=O)(=O)Cc2ccc(C(=O)N3CCN(c4cc(Cl)ccc4C)CC3)o2)cc1 | active: 72% |
| Cc1csc(SCC(=O)c2ccc(S(=O)(=O)N3CCOCC3)cc2)n1 | inactive: 100% |
| CCOc1cc(/C=N/NC(=O)C(C)Sc2ccccc2)ccc1O (stereo not given) | inactive: 88% |
| CC(C)OC(=O)CCCCCN1C(=O)CSC1=S | inconclusive: 103% |
| CC(=O)N=c1sc2nc3ccccc3nc2n1N(C(C)=O)C(C)=O | inconclusive: 83% |
| Cc1ccc(NC(=O)N/C=C/c2ccccc2)cc1 | inconclusive: 93% |
| CC(=O)Nc1ccc(NC(=O)C2CCN(C(=O)c3cccs3)CC2)cc1 | inactive: 95% |
| CC(C)CC(NC(=O)C(NC(=O)C1OC2OC(C)(C)OC2C2OC(C)(C)OC12)C(C)C)C(=O)O (stereo not given) | inactive: 97% |
| CC(C(=O)NC1CCCC1)N(C(=O)c1snc(C(N)=O)c1N)c1ccc2c(c1)OCCO2 (stereo not given) | inconclusive: 107% |
| C#Cc1ccc([C@@H]2C=C(C(=O)Nc3ccccc3)O[C@H](OCC)[C@H]2CCCO)cc1 | inconclusive: 95% |
| CC(C)C(NC(=S)Nc1ccccc1)C(=O)O (stereo not given) | inactive: 103% |
| O=C(COC(=O)c1ccc(Cl)c([N+](=O)[O-])c1)Nc1ccccc1OC(F)F | inconclusive: 98% |
| O=c1[nH]c2c(c3c1CCCC3)CCCC2 | inconclusive: 102% |
| COCCNc1ccc([N+](=O)[O-])cc1C(=O)Nc1cccc(C)n1 | inactive: 102% |
| CC(C)Oc1ccc(CCc2n[nH]c(=S)n2-c2ccccc2)cc1 | inactive: 97% |
| O/N=C1\CC/C(=N\O)c2nn(-c3ccc(Cl)cc3Cl)nc21 | inconclusive: 91% |
| Brc1ccc(Nc2nc(-c3cccnc3)cs2)cc1 | inconclusive: 97% |
| O=c1oc(-c2cccs2)nc2scc(-c3cccs3)c12 | inconclusive: 81% |
